PubChem BioAssay AID485297 (National Center for Advancing Translational Sciences (NCATS), 2010)
Out of some 320,000 compounds screened, about 9,100 (2.8%) were called active. Inconclusive means that the source gave no clear call. Such entries were picked first, then a sample of the others. The call rests on the fitted dose curve; in most records, active means well fitted activation curve with a large enough effect; inconclusive means small, poorly fitted or top-dose-only effect; inactive means no such curve, though single readings can be large or run the other way. Potencies beside an inconclusive call are fits to weak or partial responses and may not hold up.

assay: qHTS Assay for Rab9 Promoter Activators; conditions: Huh7 Rab9 promoter-luciferase reporter, luminescence, 24 h; series mostly up to 9.22 µM; activation, negative = inhibition: at the top concentration; further: nearly all actives have a fitted effect of over 60% in size; on activation, negative = inhibition: % of control where 0% means no effect
How it was run: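 Cell-based reporter: Huh7 stable for Rab9 promoter-driven luciferase, plated in reduced-serum medium with 10% FBS at 1500 cells/well, compound-treated 24 h at 37 °C, luminescence read after 10 min reagent.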
Potency means the concentration at half of the fitted maximal effect; tags describe the fitted curve by direction and shape.

Potency, active:
Cn1c(-c2ccc(F)c(F)c2)cc2onc(-c3ccccc3)c2c1=O 1.12 µM
Cc1ccsc1C(=O)OCc1cc(=O)n2ccsc2n1 1.41 µM
O=C(CSc1nccn1-c1ncc(C(F)(F)F)cc1Cl)c1ccc(Br)cc1 1.58 µM
O/C(=C\c1nc2ccccc2nc1/C=C(\O)c1ccccc1)c1ccccc1 4.47 µM
CC(C)(C)c1ccc(NC(=O)c2ccc(=O)[nH]n2)cc1 0.794 µM
CCOc1ccc2nc(SCC(=O)c3cccs3)sc2c1 2.82 µM
CCC(=O)Nc1ccc2oc(-c3ccccc3Br)nc2c1 2 µM
CC(C)c1nnc(NC(=O)c2ccc3ccccc3c2)s1 1 µM
CC(=O)c1ccc(NC(=O)c2noc3c2CCCCC3)cc1 2 µM
Cc1cc(/C=C2/C(=O)NN(c3ccccc3)C2=O)c(C)n1-c1ccc(O)cc1 2.51 µM
CC1CCc2nc(/C(C#N)=C/c3cccnc3)sc2C1 (stereo unspecified) 1.26 µM
COc1c(C(=O)Nc2nnc(C3CC3)s2)csc1Cl 3.98 µM
Cc1cc(/C=N/NC(=O)c2cccnc2)c(C)n1CC(C)C 2.82 µM
O=C(/C=C\Nc1ccc(Br)cc1)c1cccnc1 1.26 µM
Cc1occc1C(=O)N/N=C/c1ccc(OCc2ccccc2)cc1 2.82 µM
COc1cc(C2Nc3ccccc3C(=O)N2c2ccc3c(c2)OCCO3)ccc1OCC(C)C (stereo unspecified) 0.562 µM

Potency, inconclusive:
CN(C)c1ccc(-c2nc3cnccn3c2Nc2ccc3c(c2)OCCO3)cc1 2 µM [activator, partial curve]
Cn1c(SCC(=O)c2ccccc2)nnc1-c1ccco1 5.62 µM [activator, single point]
CCc1ccc2oc(-c3cccc(NC(=O)c4cccnc4)c3)nc2c1 3.16 µM [activator, partial curve]
CCOC(=O)c1ccc(NC(=S)Nc2ccc(Cl)cn2)cc1 0.501 µM [activator, partial curve]
O=C(c1cc(COc2ccc(F)cc2F)on1)N1C[C@H]2CC[C@H]1C2 1.58 µM [activator, partial curve]
N#CCC(=O)N/N=C\c1cc(Br)ccc1OC/C=C/c1ccccc1 3.16 µM [activator, single point]
O=C(Nc1nccs1)c1ccc(Cl)s1 5.62 µM [activator, single point]
CCCn1cnc2cc(NCc3cccs3)ccc21 3.55 µM [activator, single point]
Cn1cccc1/C=N/NC(=O)c1cc2ccccc2cc1O 3.16 µM [activator, single point]
COc1cc(-c2nc3ccccc3s2)ccc1O 1.41 µM [activator, partial curve]
O=C(/C=C/c1ccccc1)N1CCOCC1 6.31 µM [activator, single point]
COc1ccccc1-c1nnc(-c2ccc(N3CCOCC3)cc2)o1 3.55 µM [activator, single point]
O=C(Nc1nnc(SCC(=O)N2CCOCC2)s1)c1ccccc1 3.16 µM [activator, single point]
CC(/C=N/N1CCN(c2ccccn2)CC1)=C\c1ccccc1 3.16 µM [activator, single point]
CCc1cc(=O)oc2cc(C)cc(OC(C)C(=O)O)c12 (stereo unspecified) 1.12 µM [activator, single point]
CC(=O)Nc1ccc2nc(SCC(=O)Nc3ccc(N4CCOCC4)c(Cl)c3)sc2c1 1.78 µM [activator, partial curve]
CN(C)/N=C/C=C1\CC/C(=C\c2ccc(Br)cc2)C1=O 5.62 µM [activator, single point]
Cc1ccc(SCCc2cc[n+](CC(=O)c3ccccc3)cc2)cc1 5.62 µM [activator, single point]
CC(C)(C)c1ccc(Cn2cnc(-c3ccc([N+](=O)[O-])cc3)c2)cc1 2.51 µM [activator, partial curve]
CN(C)c1ccc(NC(=O)Nc2ccc3snnc3c2)cc1 3.55 µM [activator, single point]
CC(=O)Nc1cccc(C(=O)/C=C/c2cccs2)c1 5.62 µM [activator, single point]
COC(=O)c1ccc(COc2ccc3c(C)c(C)c(=O)oc3c2)o1 3.16 µM [activator, single point]
Nc1nc(COc2ccc(Cl)cc2)cs1 3.55 µM [activator, partial curve]
CN(C)c1ccnc2sc3c(SCc4ccc(Cl)cc4)ncnc3c12 5.62 µM [activator, single point]
N#Cc1ccc(/C=C(\C(=O)C(=O)O)c2ccc3ccccc3n2)cc1 3.55 µM [activator, single point]
CCN1C(=O)/C(=C/C=C2/CCCN2C)OC1=S 0.631 µM [activator, full curve]
CCOC(=O)N1CCN(C(=O)c2ccc(Cl)nc2)CC1 5.62 µM [activator, single point]
Clc1ccsc1-c1ccc2ccccc2n1 5.62 µM [activator, single point]
Cc1ccc(C(=O)/C=C/Nc2cccc(O)c2)cc1 5.62 µM [activator, single point]
CCCC(=O)Nc1nc2ccc3nc(C)sc3c2s1 3.55 µM [activator, single point]
CN(C)C(=S)Nc1nc2ccccc2s1 1.41 µM [activator, partial curve]
Cc1cc(C)nc(Nc2nc3ccccc3[nH]2)n1 3.55 µM [activator, partial curve]
O=C(Nc1ccc(F)cc1)c1cc(Cl)sc1Cl 5.62 µM [activator, single point]
O=C(Nc1nc2ccccc2s1)c1ccc(Cl)s1 0.562 µM [activator, full curve, poor fit]
O=C(O)c1ccccc1Nc1ccc([N+](=O)[O-])cc1 4.47 µM [activator, single point]
N#C/C(=N\Nc1ccccc1)C(=N)N1CCCCC1 5.62 µM [activator, single point]
O=C(C1CCN(S(=O)(=O)c2cccs2)CC1)N1CCCCC1 1.78 µM [activator, partial curve]
COc1ccc(NC(=O)Nc2ccccc2F)c(C)c1 3.16 µM [activator, partial curve]
CCOC(=O)Cc1csc(NC(=O)c2cc3ccccc3o2)n1 2.51 µM [activator, partial curve]
COC(=O)C1C(=O)c2c([nH]c(C(=O)OCCOC(C)C)c2C)CC1C (stereo unspecified) 3.16 µM [activator, single point]

activation, negative = inhibition, inactive:
CC1(C)Cc2nc3sc(C(=O)O)c(N)c3cc2CS1 -7.3%
CCN(CC)S(=O)(=O)c1ccc2c(c1)CC(C(=O)N1CCCC1)N2C(C)=O (stereo unspecified) -0.32%
COc1ccc(C2SCC(=O)N2c2ccc(C)cc2)cc1 (stereo unspecified) 2.07%
O=C(CN(C(=O)c1csnn1)c1ccc(F)cc1)NCc1ccc2c(c1)OCO2 9.54%
O=C(CCC1CCCC1)NCCS(=O)(=O)N1CCN(c2ccccc2)CC1 -5.55%
Cc1[nH]c2ccccc2c1Cc1nnc(SCC(=O)NCc2ccco2)o1 -4.66%
COc1cccc(-c2ccc(SCC(=O)N3CCc4ccccc43)nn2)c1 -3.3%
Cc1ccc(S(=O)(=O)NCCNC(=O)CN2CCOCC2)cc1 0.694%
CCCn1c(CN2CCN(C(=O)OCC)CC2)nc2cc(NC(C)=O)ccc21 -1.32%
CCc1ccccc1NC(=O)NCc1cccnc1 -0.178%
Clc1ccc(N2CCN(/N=C/c3ccncc3)CC2)cc1 -5.02%
CCC(C)N(C(=O)COC(=O)Cc1n[nH]c(=O)c2ccccc12)C1CCS(=O)(=O)C1 (stereo unspecified) -0.92%
CCCC(=O)Nc1nc(-c2ccccc2)c(CC)s1 -7.33%
COc1ccc(C(c2sc3ncnn3c2O)N2CC(C)OC(C)C2)cc1OC (stereo unspecified) -1.55%
O=C(Nc1ccc2c(c1)OCCO2)c1cc2sccc2n1Cc1ccc(F)cc1 27.9%
C#CCOCCOCCOCCNc1nc(N2CCN(C(=O)[C@H]([C@@H](C)CC)n3cc([C@@H](N)CC(C)C)nn3)CC2)nc(N2CCN(C(=O)[C@H](Cc3ccc(O)cc3)n3cc([C@@H](N)CC(C)C)nn3)CC2)n1 -0.886%
CCNC(=S)N1CCC(n2cnc3ccccc32)CC1 -0.752%
CC(=O)c1cccc(NC(=O)CN(C)S(=O)(=O)c2ccc3c(c2)CC(C)N3C(C)=O)c1 (stereo unspecified) -5.67%
CCCC1CCC(C(=O)n2nc(N)c3cc4ccc(OC)cc4nc32)CC1 (stereo unspecified) -1.69%
CC(=O)N1N=C(c2ccco2)CC1c1cc2ccc(C)cc2nc1Cl (stereo unspecified) -8.42%
Cn1c(CNC(=O)OC(C)(C)C)nnc1SCC(=O)N1CCOCC1 -2.87%
COc1cc(CCC(=O)OCC(=O)Nc2ccccc2F)cc(OC)c1OC -1.72%
CN(C)c1ccc(/C=N/Nc2ccc(-n3ccnc3)nn2)cc1 -1.04%
COc1ccc2[nH]c(C(=O)N3CCN(Cc4ccccc4)CC3)cc2c1OC 4.29%
COC(C[C@@H](O)C[C@H](O)COCc1ccccc1)OC -8%
